Test results reported in the supplement of paper PMC3334620.
In all, about 33,000 sequences were measured (“E-score (-0.5 to 0.5)”: median about -0.01, highest 2% from about 0.26 on). The list shows a part of the results.

Target: Ste12 (UniProt P13574)
Assay: PBM E-score (8-mer binding enrichment) (E-score (-0.5 to 0.5)); higher = stronger / more preferred TF binding; most listed sequences are background and not binding sites
Conditions: protein concentration: 200 nM; construct: GST-DNA-binding domain
Summary of the method: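 The E-score, a modified Wilcoxon-Mann-Whitney statistic, was computed by the Universal PBM Analysis Suite for every ungapped eight-base word pooled with its reverse complement. Scans behind it were normalised with masliner after bound GST-tagged yeast transcription factors were detected with fluorescent anti-GST. The proteins, at about 100-200 nM, had been applied to universal all-10-mer Agilent arrays made double-stranded by primer extension.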

Compared with CGTACTTA, CACCACCC is lower in “PBM E-score” value: -0.0226 for the first, -0.109 for the second.

Compared with ATGATCTC, CAACCGCA is lower in “PBM E-score” value: -0.0488 for the first, -0.128 for the second.

Compared with CGTGAGTA, AAGCTCGC is higher in “PBM E-score” value: -0.0256 for the first, -0.002 for the second.

First: AACTTGGG
Second: GACCGCCA
The “PBM E-score” value of the first is higher: 0.0515 for the first, -0.0164 for the second.

First: CGAGGTGA
Second: CACTCCCC
The “PBM E-score” value of the first is higher: 0.217 for the first, 0.145 for the second.

Going from CCATGGGG to GGAATCTA, the “PBM E-score” value rises from -0.0828 to 0.134.

Compared with AAATAGTC, GAGAAGGC is higher in “PBM E-score” value: -0.0801 for the first, -0.04 for the second.

Compared with AGCCAATA, CACTCTGG is higher in “PBM E-score” value: -0.138 for the first, -0.0849 for the second.

Compared with TATGTCCA, GCAGCAAC is higher in “PBM E-score” value: -0.166 for the first, -0.0291 for the second.

Going from CGGGAGCA to CACTTTGC, the “PBM E-score” value rises from -0.159 to 0.0517.

Going from GGTGCAGA to ATGAACCC, the “PBM E-score” value rises from -0.0262 to 0.019.

First: CACCAAAG
Second: CTACCTGA
The “PBM E-score” value of the first is higher: 0.097 for the first, -0.0555 for the second.

First: CCGTCTTC
Second: AATTGCCT
The “PBM E-score” value of the first is lower: 0.0624 for the first, 0.185 for the second.

Compared with AGACCCAT, ACGGAGAA is lower in “PBM E-score” value: 0.0417 for the first, -0.0374 for the second.

Going from AAGCTAAC to ATATTGAG, the “PBM E-score” value rises from -0.0717 to 0.108.

Going from CTCCCTGA to CAACTAGG, the “PBM E-score” value falls from -0.0927 to -0.139.

Going from ATACATCC to CAATTTCC, the “PBM E-score” value falls from -0.0557 to -0.0578.

First: GATGCAGC
Second: AGGCCGAT
The “PBM E-score” value of the first is higher: -0.00181 for the first, -0.136 for the second.

Going from AACTTCCA to AATCCATT, the “PBM E-score” value rises from 0.0644 to 0.137.

Compared with AGCGCTGG, CATTTTTC is higher in “PBM E-score” value: -0.113 for the first, 0.189 for the second.

Compared with TCACCACA, ATTACAAA is higher in “PBM E-score” value: -0.105 for the first, 0.165 for the second.

First: CAGGTATC
Second: AACAATAC
The “PBM E-score” value of the first is lower: -0.149 for the first, 0.0824 for the second.

Compared with ATGTATTG, AATTCCTG is lower in “PBM E-score” value: 0.128 for the first, 0.0287 for the second.

Compared with GTGCGTAA, ACAAGAGC is higher in “PBM E-score” value: -0.00441 for the first, 0.0293 for the second.

Going from CAGACAGC to GTCTCATA, the “PBM E-score” value rises from -0.025 to 0.212.

First: CTTCGCAC
Second: TGGAACAA
The “PBM E-score” value of the first is lower: -0.0981 for the first, 0.176 for the second.

First: AATGCGCA
Second: AGTTACGG
The “PBM E-score” value of the first is higher: 0.134 for the first, 0.00823 for the second.

Going from GCCGTAAC to CTGTTAAA, the “PBM E-score” value falls from 0.0092 to -0.0651.

First: CGCTGCAC
Second: ACTAATAC
The “PBM E-score” value of the first is lower: -0.108 for the first, 0.131 for the second.

Compared with CCATGTAC, CGGCCTTC is lower in “PBM E-score” value: 0.0115 for the first, -0.0176 for the second.

First: GGTTTGTA
Second: AAATCGAG
The “PBM E-score” value of the first is lower: 0.029 for the first, 0.131 for the second.

Compared with ACCAGGGG, ATACGAAA is higher in “PBM E-score” value: -0.141 for the first, 0.215 for the second.

First: CCGCCCGA
Second: AAATCCGC
The “PBM E-score” value of the first is higher: 0.111 for the first, -0.131 for the second.

Compared with CGGCACAA, AGATGTTC is lower in “PBM E-score” value: -0.0626 for the first, -0.217 for the second.

Going from ACAATTCG to GACCCACA, the “PBM E-score” value falls from 0.152 to 0.0411.

Going from AAGTCTTC to AAATACGC, the “PBM E-score” value rises from -0.0652 to 0.162.

Compared with ATTCAGCG, AGACCCTA is lower in “PBM E-score” value: -0.033 for the first, -0.188 for the second.

Going from CAAGCCAC to AGCTCGAA, the “PBM E-score” value rises from -0.147 to 0.132.

First: CAATGGCG
Second: TCGAGGCA
The “PBM E-score” value of the first is lower: -0.133 for the first, -0.0607 for the second.

Compared with GTGCCGCA, TCATTCCA is lower in “PBM E-score” value: -0.0284 for the first, -0.0298 for the second.

Going from AAGTATAA to TCGAATCA, the “PBM E-score” value falls from 0.14 to 0.0236.

Compared with GCCCACAA, ACGGCACC is lower in “PBM E-score” value: -0.0907 for the first, -0.115 for the second.

First: ACTCCTTA
Second: CATTCCTA
The “PBM E-score” value of the first is lower: -0.0459 for the first, 0.00051 for the second.

Going from AATACTGC to CAGCCGGA, the “PBM E-score” value rises from -0.103 to 0.138.

Compared with CGTAGGGC, AATTGACA is higher in “PBM E-score” value: -0.168 for the first, 0.157 for the second.

Compared with AGCCTAGA, CAGCGGTA is higher in “PBM E-score” value: -0.191 for the first, 0.0564 for the second.

Going from CATAGAAG to ACGCCGCA, the “PBM E-score” value rises from -0.00407 to 0.0482.

Compared with TCCCTCCA, CAGTTACC is higher in “PBM E-score” value: -0.191 for the first, -0.128 for the second.

Compared with GATAAATC, ACGGGACT is lower in “PBM E-score” value: -0.0398 for the first, -0.209 for the second.

Going from AACTAACC to ATTGTCAA, the “PBM E-score” value falls from 0.233 to 0.118.

Going from ACCTAAGT to CGAGAGCC, the “PBM E-score” value falls from 0.0247 to -0.209.

First: GAAATGGC
Second: AAAAGCGC
The “PBM E-score” value of the first is lower: -0.0959 for the first, 0.119 for the second.

Compared with CAAGCACG, AACCCCAT is higher in “PBM E-score” value: -0.128 for the first, 0.205 for the second.

Compared with GCGGCGTA, AACCCCAC is lower in “PBM E-score” value: 0.151 for the first, -0.12 for the second.

Going from GACTCCCC to CCCGTCCG, the “PBM E-score” value falls from -0.26 to -0.288.

Going from CCAATCCA to ACTCCAGC, the “PBM E-score” value falls from -0.0476 to -0.195.

First: AAGATGCT
Second: GCGACAGC
The “PBM E-score” value of the first is lower: -0.0781 for the first, -0.0731 for the second.

First: AAGAATGA
Second: TCTTCCCA
The “PBM E-score” value of the first is higher: 0.209 for the first, 0.0588 for the second.

Going from ACCGTCAT to ACCACTAG, the “PBM E-score” value rises from -0.101 to 0.106.

First: CCTCGACG
Second: CGGCCCAG
The “PBM E-score” value of the first is lower: -0.193 for the first, -0.161 for the second.

Going from CAGGGGTA to CGCTAGCG, the “PBM E-score” value falls from -0.0986 to -0.212.

First: AACCTTGT
Second: CAACCCGA
The “PBM E-score” value of the first is lower: -0.145 for the first, 0.135 for the second.

First: ACGTGGCC
Second: CGTTTCGA
The “PBM E-score” value of the first is lower: -0.312 for the first, 0.195 for the second.

Compared with AAACTACC, ATTAATTA is higher in “PBM E-score” value: 0.15 for the first, 0.237 for the second.

First: AGGAGTGA
Second: AGAGGGGG
The “PBM E-score” value of the first is higher: -0.0312 for the first, -0.315 for the second.

Compared with ACGCGAAG, AAACACGG is higher in “PBM E-score” value: 0.136 for the first, 0.195 for the second.

Compared with ACATTGTG, ACATGGCA is higher in “PBM E-score” value: -0.102 for the first, -0.0155 for the second.

First: AAAGCTGG
Second: GTGTCAAC
The “PBM E-score” value of the first is higher: -0.00491 for the first, -0.0894 for the second.

Compared with AGAATTTG, AACCAGGG is lower in “PBM E-score” value: 0.0447 for the first, -0.0139 for the second.

First: TATATCCA
Second: ATGCAACA
The “PBM E-score” value of the first is higher: 0.118 for the first, 0.104 for the second.

First: CACAGTCG
Second: GCTCCGTA
The “PBM E-score” value of the first is higher: 0.0514 for the first, -0.146 for the second.

First: ATATATAC
Second: CATTCAAA
The “PBM E-score” value of the first is higher: 0.271 for the first, 0.113 for the second.

Going from AGCTCCCG to GTAGGAAA, the “PBM E-score” value rises from -0.233 to -0.0141.

First: TACCGATA
Second: AGGGTTGG
The “PBM E-score” value of the first is higher: 0.0578 for the first, -0.0296 for the second.

Going from CAATTTTA to AATTGTCT, the “PBM E-score” value falls from 0.253 to 0.101.

First: CAACCCCG
Second: CGAACTCC
The “PBM E-score” value of the first is higher: -0.0295 for the first, -0.116 for the second.

First: GCCTCAGA
Second: AACCCAGC
The “PBM E-score” value of the first is higher: 0.165 for the first, -0.126 for the second.

Going from GCCTATAA to GCGGACAC, the “PBM E-score” value falls from 0.0897 to -0.16.

Going from ACATTGAT to AGCCCACC, the “PBM E-score” value falls from 0.0854 to -0.0991.

First: GGGAAAAA
Second: AGTTGCCC
The “PBM E-score” value of the first is higher: 0.272 for the first, -0.0196 for the second.

Compared with AAGTCAGT, AGTAATGA is higher in “PBM E-score” value: 0.0177 for the first, 0.0777 for the second.

First: CGCGCCTC
Second: GCCCGACC
The “PBM E-score” value of the first is higher: 0.108 for the first, -0.017 for the second.

First: AGTAGATA
Second: AAGGCAAG
The “PBM E-score” value of the first is higher: 0.16 for the first, -0.124 for the second.

Compared with AGGAAGTC, ACAGCGCG is lower in “PBM E-score” value: -0.0505 for the first, -0.107 for the second.

Compared with ATCTGTGC, CGAGGAGA is lower in “PBM E-score” value: -0.107 for the first, -0.145 for the second.

First: AGGTAACC
Second: CGGATTCC
The “PBM E-score” value of the first is lower: -0.235 for the first, 0.0541 for the second.
